# Laboratory results as given in paper PMC13083723 (Patterns, 2026).
# The whole screen tested about 5,400 compounds, of which about 190 (3.5%) showed an effect of 50% or more. The list shows a part of the results. Positions of bridges follow the written chain, without caps; N, C: chain ends. Non-standard residues stand in square brackets, D forms with d. Residues, ends and D or L forms follow the SMILES beside them. *: point of attachment. X1 = CCC(C)C(N)C1=NC(C(=O)*)CS1; dOrn = NCCC[C@@H](N)C(=O)O
# Tested on: Vero-E6
# Test: primary screen, phospholipidosis by LipidTOX staining; higher = more effect of the substance
# Conditions: 10 µM
# In short: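 Drug-induced phospholipidosis detected with HCS LipidTOX Red reagent in Vero-E6 cells. Compounds tested at 10 μM, with amiodarone (10 μM) as positive control and DMSO (0.1 v/v %) as vehicle.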
row,SMILES,result_ITMP [%]
1,Cc1cc(NC(=O)Nc2ccc(N(C)C)cc2)c2cc(F)cc(F)c2n1,3.8
2,OC[C@H]1O[C@@H](n2cnc3c2NC=NC[C@H]3O)C[C@@H]1O,-5.63
3,CN(C)/N=N/c1[nH]cnc1C(N)=O,0.56
4,CN1C[C@@H](NS(=O)(=O)N(C)C)C[C@@H]2c3cccc4c3c(cn4C)C[C@H]21,0.99
5,C[N+](C)(C)CCCCCC[N+](C)(C)C,-5.53
6,O=c1ccc2ccc(OCCCCN3CCN(c4cccc5sccc45)CC3)cc2[nH]1,1.96
7,CC(C)Cc1sc(N)nc1-c1ccc(P(=O)(O)O)o1,-1.22
8,c1cc(Cc2cnc[nH]2)ccn1,-3.63
9,CCCCCCCCc1ccc(-c2ccc(C(=O)O)cc2)cc1,-2.19
10,CC(CCC(=O)O)[C@H]1CCC2C3C(=O)C[C@@H]4CC(=O)CC[C@]4(C)C3CC(=O)[C@@]21C (some centres unmarked),2.15
11,CC(C)(O)C(Cl)(Cl)Cl,-3.96
12,COCCOc1cnc2ccn([C@H](C)c3nnc4c(F)cc(-c5cnn(C)c5)cn34)c(=O)c2c1,0.05
13,Cc1cc2c(cc1S(N)(=O)=O)S(=O)(=O)CCC2,1.83
14,Oc1cccc2cccnc12,-3.64
15,Nc1nc2c(ncn2[C@@H]2O[C@H](CO)[C@@H](O)[C@H]2O)c(=O)[nH]1,-4.89
16,COC(=O)Nc1nc2cc(C(=O)c3ccccc3)ccc2[nH]1,2.13
17,Nc1nc2c(c(=O)[nH]1)C[C@@H](CCc1ccc(C(=O)N[C@@H](CCC(=O)O)C(=O)O)cc1)CN2,3.51
18,CC1(C)S[C@@H]2[C@H](NC(=O)[C@H](NC(=O)N3CCNC3=O)c3ccccc3)C(=O)N2[C@H]1C(=O)O,-1.89
19,OCc1ccc(CO)o1,0.61
20,N#C/C(=C\c1ccc(O)cc1)C(=O)O,-1.1
21,CC(C)c1ccc2oc3nc(N)c(C(=O)O)cc3c(=O)c2c1,-4.3
22,CC(C)c1ccc(CC(=O)N2CCC[C@@H](c3cccc(OC(C)(C)C(=O)O)c3)C2)cc1,-0.97
23,CCn1c2ccccc2c2cc(Nc3ccnc(NCCCN4CCOCC4)n3)ccc21,57.6
24,COc1cccc([C@@H](C)NCCCc2ccccc2Cl)c1,70.1
25,COc1ccc(CCN)cc1OC,-4.61
26,CCCCCCc1ccc(O)cc1O.Nc1c2ccccc2nc2ccccc12,42.4
27,Cl/C=C\C[N+]12CN3CN(CN(C3)C1)C2,-3.36

row,SMILES,result_ITMP [%]
1,O=C1[C@H](Cc2ccc(O)cc2)N2C(=O)CCN(C(=O)NCc3ccccc3)[C@H]2CN1Cc1cccc2ccccc12,-10.9
2,O=C(NCC1(N2CCN(c3ccccc3)CC2)CCOCC1)c1cccnc1Sc1ccccc1,6.86
3,CN[C@H](C(=O)N[C@H](C(=O)N(C)[C@H](/C=C(\C)C(=O)O)C(C)C)C(C)(C)C)C(C)(C)c1ccccc1,0.85
4,CC(=O)Nc1ccccc1,-3.98
5,O=C(/C=C/c1ccc2ccccc2n1)c1ccncc1,-10
6,Cc1cc(C(N)=O)ccc1-n1c(CCC(=O)O)ccc1-c1ccc(-n2ccnc2)cc1,-0.5
7,CCCN1C[C@H](CSC)C[C@@H]2c3cccc4[nH]cc(c34)C[C@H]21,1.51
8,CSc1ccc2c(c1)C(N1CCN(C)CC1)Cc1ccccc1S2 (centres unmarked),79.9
9,COc1ccc([C@]2(O)CC[C@H](N3CC[C@@H](NC(=O)CNC(=O)c4cccc(C(F)(F)F)c4)C3)CC2)cn1,-6.31
10,C[C@H]1COc2c(C3(N)CC3)c(F)cc3c(=O)c(C(=O)O)cn1c23,-1.97
11,CC(C(=O)O)c1ccc2c(c1)Cc1cccnc1O2 (centres unmarked),-4.04
12,CCC(C)C(N)C1=NC(C(=O)N[C@@H](CC(C)C)C(=O)N[C@H](CCC(=O)[O-])C(=O)N[C@H](C(=O)N[C@H]2CCCCNC(=O)[C@H](CC(N)=O)NC(=O)[C@@H](CC(=O)[O-])NC(=O)[C@@H](Cc3cnc[nH]3)NC(=O)[C@@H](Cc3ccccc3)NC(=O)[C@@H]([C@H](C)CC)NC(=O)[C@@H](CCCN)NC2=O)[C@@H](C)CC)CS1 (some centres unmarked) (X1-L[dE]IK[dOrn][dI][dF][dH][dD]N; lactam 4-C),-3.81
13,Cc1c(C)c2c(c(C)c1O)CCC(C)(COc1ccc(CC3SC(=O)NC3=O)cc1)O2 (centres unmarked),-3.62
14,Cc1ccccc1-c1cc(N2CCN(C)CC2)ncc1N(C)C(=O)C(C)(C)c1cc(C(F)(F)F)cc(C(F)(F)F)c1,-0.61
15,COC(c1ccccc1)(c1ccccc1)[C@H](Oc1nc(C)cc(C)n1)C(=O)O,-4.63
16,O=C1NC(=S)NC(=O)C1C(=O)Nc1ccccc1,-8.79
17,CC(=O)Nc1ccc(Cc2ccc(NC(C)=O)cc2)cc1,-4.6
18,O=C(NO)c1ccc(O)c(O)c1,-2.75
19,CCOc1nc2cccc(C(=O)OC(C)OC(=O)OC3CCCCC3)c2n1Cc1ccc(-c2ccccc2-c2nnn[nH]2)cc1 (centres unmarked),-3.73
20,COC(=O)C1=C(C)NC(C)=C(C(=O)OCCN2CCN(C(c3ccccc3)c3ccccc3)CC2)C1c1cccc([N+](=O)[O-])c1 (centres unmarked),11.6
21,COc1cccc(-c2cc(NCc3ccc4c(c3)OCO4)nc(N)n2)c1,4.88
22,COc1cc(S(C)=O)ccc1-c1nc2ncccc2[nH]1 (centres unmarked),-8.57
23,CCN(CC)CCCCNc1ncc2cc(-c3c(Cl)cccc3Cl)c(NC(=O)NC(C)(C)C)nc2n1,69.2
24,C[C@@H]([C@H](O)c1ccccc1)N(C)C,-15.3
25,COc1ccc([C@@H]2CC(=O)c3c(O)cc(O[C@@H]4O[C@H](CO[C@@H]5O[C@@H](C)[C@H](O)[C@@H](O)[C@H]5O)[C@@H](O)[C@H](O)[C@H]4O)cc3O2)cc1O,0.24
26,CO[C@H](C(=O)[C@@H](O)[C@@H](C)O)[C@@H]1Cc2cc3cc(O[C@H]4C[C@@H](O[C@H]5C[C@@H](O)[C@H](O)[C@@H](C)O5)[C@@H](O)[C@@H](C)O4)c(C)c(O)c3c(O)c2C(=O)[C@H]1O[C@H]1C[C@@H](O[C@H]2C[C@@H](O[C@H]3C[C@](C)(O)[C@H](O)[C@@H](C)O3)[C@H](O)[C@@H](C)O2)[C@H](O)[C@@H](C)O1,29.4
